Source: PubChem BioAssay AID686978 (National Center for Advancing Translational Sciences (NCATS), 2013)
The whole screen tested about 420,000 compounds, of which about 64,000 (15%) were called active. The inconclusive results got no clear call from the source; some entries with a clear call stand among them for comparison. The call rests on the fitted dose curve; in most records, active means well fitted inhibition curve with a large enough effect; inconclusive means small, poorly fitted or top-dose-only effect; inactive means flat fitted curve, though single readings scatter. No potency is given beside an inconclusive call; the fits are too rough.

experiment: qHTS for Inhibitors of human tyrosyl-DNA phosphodiesterase 1 (TDP1): qHTS in cells in absence of CPT; conditions: DT40 Tdp1-/- hTDP1 cells, no CPT, ATP luminescence, 48 h; activity change, negative = growth inhibition: at 46.2 µM (top of the series) unless noted; further: nearly all actives have a fitted effect of over 55% in size
Procedure, shortened: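 Seeded 400 DT40-hTDP1 cells/well (vehicle DMSO, no 20 nM CPT); pinned compounds; ≥48 hr at 37 °C; CellTiter-Glo luminescence as viability measure.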
On the % scale 0 is the no-effect control and ±100 the full control effect; potency means the concentration at half of the fitted maximal effect; tags describe the fitted curve by direction and shape.

Row | Compound | activity change, negative = growth inhibition | Potency
1 | CCSc1nc(O)cc(=O)n1-c1ccc(OC)cc1 | inactive: -5.42% | 
2 | Cn1ccnc1C(=O)C1CCCN(Cc2cn[nH]c2-c2ccc(-c3ccccc3)cc2)C1 (stereo unspecified) |  | inconclusive [inhibitor, single point]
3 | CCOc1cc2[nH]c(=O)n(CCCN3CCCC3=O)c(=O)c2cc1OCC | inactive: -24.6% | 
4 | C=CCSc1nc(N)c(C#N)c(-c2ccccc2)c1C#N |  | inconclusive [inhibitor, partial curve]
5 | O=C(NCCCN1CCCCC1)c1ccc2c(c1)NC(=O)C(N1CCOCC1)S2 (stereo unspecified) | inactive: -5.19% | 
6 | O=C(Nc1ccccc1N1CCOCC1)c1ccc(OCc2cscn2)cc1 |  | inconclusive [inhibitor, single point]
7 | COc1cc(Cl)c(C)cc1NC(=O)c1cc(CN2CCOCC2)on1 |  | inconclusive [inhibitor, single point]
8 | CCOC(=O)C1(C)CCCN1C(=O)c1csnn1 (stereo unspecified) | inactive: 11.7% | 
9 | COc1ccc(OC)c(CNC(=O)C2CCN(S(=O)(=O)c3cn(C)cn3)CC2)c1 | inactive: 2.42% | 
10 | COc1ncc2ncc(=O)n(CCc3ccccc3)c2n1 | inactive: -15.1% | 
11 | Cc1nc2c(-c3ccc(F)cc3)c(C)nn2c(C)c1CCC(=O)N1CCC(Cc2ccccc2)CC1 |  | active: 23.1 µM
12 | O=C(O)CCN(Cc1ccccc1)S(=O)(=O)c1ccc(Cl)cc1F | inactive: -22.4% | 
13 | CC(C)(C)n1nnnc1SCC(=O)Nc1nn(-c2ccccc2)nc1C(N)=O | inactive: -27.6% | 
14 | O=C(CNC(=O)c1ccc(Cl)cc1)OC1CCOC1=O (stereo unspecified) |  | inconclusive [inhibitor, single point]
15 | Cc1ccc(S(=O)(=O)c2cn(Cc3ccccc3F)c3cc4c(cc3c2=O)OCO4)cc1 |  | inconclusive [inhibitor, partial curve]
16 | CC1=NCC(C)c2c1[nH]c1ccccc21 (stereo unspecified) |  | inconclusive [inhibitor, partial curve, poor fit]
17 | NS(=O)(=O)c1ccc(CCNC(=O)c2cc3ccccc3s2)cc1 | inactive: -22.1% | 
18 | Cc1nn(Cc2ccccc2)c(C)c1NC(=O)CCCn1nc(C)c([N+](=O)[O-])c1C | inactive: 0.504% | 
19 | CC(C)(C)N1C(=O)c2ccc(C(=O)Nc3nccs3)cc2C1=O |  | inconclusive [inhibitor, single point]
20 | CC(=O)OCC(=O)C1(O)CCC2C3CC(C)C4=CC(=O)CCC4(C)C3C(O)CC21C (stereo unspecified) | inactive: -17.1% | 
21 | O=C(NCCCN1CCN(c2ccccc2F)CC1)C1CCN(S(=O)(=O)c2cccs2)CC1 |  | inconclusive [inhibitor, single point]
22 | CC1CCCN(Cc2c(O)ccc3c(=O)c(Oc4ccccc4Cl)c(C(F)(F)F)oc23)C1 (stereo unspecified) | inactive: 11% | 
23 | CCc1ccccc1NC(=O)CN1CCN(C(=O)CNC(=O)Cc2cccc3ccccc23)CC1 |  | inconclusive [inhibitor, partial curve]
24 | CCc1ccc(NC(=O)CCS(=O)(=O)c2ccc3c(c2)CCN3C(C)=O)cc1 |  | inconclusive [inhibitor, single point]

Row | Compound | activity change, negative = growth inhibition | Potency
25 | COc1ccc(C2=Nc3ccccc3N(C(=O)c3ccc(C(F)(F)F)cc3)C2C(=O)NCc2ccccc2)cc1 (stereo unspecified) |  | inconclusive [inhibitor, single point]
26 | Cc1cc(NC(=O)c2ccc3c(c2)N(Cc2cccc(Cl)c2)C(=O)c2ccccc2S3=O)ccc1Br (stereo unspecified) |  | inconclusive [inhibitor, single point]
27 | CC(C)CNC(=O)C1(C)CCN1C(=O)c1ccc(C(C)(C)C)cc1 (stereo unspecified) |  | active: 8.2 µM
28 | Cc1ccc([N+](=O)[O-])cc1S(=O)(=O)NCCc1c(C)[nH]c2c(C)cccc12 |  | inconclusive [inhibitor, single point]
29 | COc1ccc(N(CCCN2C(=O)c3cccc4cccc(c34)C2=O)C(=O)c2cccnc2)cc1 |  | inconclusive [inhibitor, single point]
30 | CC(=O)c1c(C)n(CC(=O)NCc2ccc3c(c2)OCO3)c2ccccc12 |  | active: 14.1 µM
31 | NNC(=O)CN1CCCc2ccccc21 | inactive: -7.93% | 
32 | Cc1ccn2c(=O)nc(SCC(=O)N3CCC(C)CC3)nc2c1 |  | inconclusive [inhibitor, single point]
33 | Cc1cc2cc(C)c(NCCNC(=O)c3cccc(F)c3)nc2cc1C |  | inconclusive [inhibitor, single point]
34 | CCSc1nnc(Nc2ccccc2)s1 | inactive: -21.7% | 
35 | Cc1ccc(S(=O)(=O)N2CCN(C(=O)COC(=O)c3ccc([N+](=O)[O-])o3)CC2)c(C)c1 | inactive: -2.21% | 
36 | NS(=O)(=O)c1ccc(N/C=C/C(=O)c2ccc(Br)cc2)cc1 |  | inconclusive [inhibitor, single point]
37 | COc1ccc(OC)c(NC(=O)Nc2nc(C(N)C(C)C)cs2)c1 (stereo unspecified) |  | inconclusive [inhibitor, single point]
38 | CCCCC1C(C#N)=C(C)NC2=C1C(=O)CC(C)(C)C2 (stereo unspecified) |  | inconclusive [inhibitor, partial curve]
39 | CC(C)CCNC(=O)COc1ccc(C(=O)c2ccccc2)cc1 |  | inconclusive [inhibitor, single point]
40 | CC(C)Oc1cccc(-c2cc(C(=O)NN3CCOCC3)c3ccccc3n2)c1 |  | active: 10.3 µM
41 | COc1ccccc1NC(=O)C1=C(C)N(c2ccccc2)C(=S)NC1c1cccc(C(F)(F)F)c1 (stereo unspecified) |  | inconclusive [inhibitor, single point]
42 | CCOC(=O)c1c(C=O)c(C)n(Cc2ccccc2)c1C |  | inconclusive [inhibitor, single point]
43 | Cc1nn(C)c(C(=O)NC(=S)Nc2ccccc2Br)c1Cl | inactive: 13% | 
44 | Brc1cc2c(cc1/C=N/Nc1nc3ccccc3s1)OCO2 |  | inconclusive [inhibitor, single point]
45 | Cc1ccc(NC(=O)CN2CCN(c3ccccn3)CC2)c(Cl)c1 |  | inconclusive [inhibitor, full curve]
46 | Cc1cccc(NC(=O)COC(=O)c2ccc(C)c(S(=O)(=O)N3CCCCC3)c2)c1 |  | inconclusive [inhibitor, partial curve]
47 | CC(C(=O)O)n1nnc2ccccc21 (stereo unspecified) | inactive: 4% | 
48 | CN1C(=O)C(C)(C)c2cc(S(=O)(=O)N3CCCC(C(=O)NCc4ccc(Cl)cc4)C3)ccc21 (stereo unspecified) |  | inconclusive [inhibitor, single point]

Row | Compound | activity change, negative = growth inhibition | Potency
49 | CSCCC(NC(=O)c1ccccc1)C(=O)N1CC=C(c2ccccc2)CC1 (stereo unspecified) |  | inconclusive [inhibitor, single point]
50 | Cc1ccc(C(C)C)c(OCCNC(=O)c2cncc(Br)c2)c1 |  | inconclusive [inhibitor, single point]
51 | Cc1ccc(S(=O)(=O)N(CC(=O)NCc2ccncc2)C2CCCCC2)cc1 |  | active: 9.2 µM
52 | O=C(c1ccccc1)N1CCN(C(=O)c2cccnc2)CC1 |  | inconclusive [inhibitor, single point]
53 | CCN1C(=NCC2CC2)N[C@@H](c2cccc(C(F)(F)F)c2)C(C(=O)OC)=C1C |  | active: 10.3 µM
54 | CCC1CN(S(=O)(=O)c2cc(-c3cc(C)no3)ccc2OC)c2cc(C)ccc2O1 (stereo unspecified) |  | active: 23.1 µM
55 | COc1cc2cc(CCOC(=O)N3CCCCC3)oc(=O)c2cc1OC |  | inconclusive [inhibitor, single point]
56 | COC(=O)Cc1ccc(OC(=O)c2cccc(S(=O)(=O)N3CCN(C)CC3)c2)cc1 | inactive: -22.9% | 
57 | COc1cc(NC(=O)c2cc(-c3ccco3)on2)cc(OC)c1OC |  | inconclusive [inhibitor, single point]
58 | C=CCn1c(SCC(=O)N2CCc3ccccc3C2)nc2ccccc2c1=O |  | active: 18.4 µM
59 | CC1(c2ccc([N+](=O)[O-])cc2)NC(=O)N(CC(=O)Nc2ccc(N3CCCCC3)cc2)C1=O (stereo unspecified) |  | active: 18.4 µM
60 | Cn1cnnc1SCC(=O)Nc1cc(C(=O)O)cc(C(=O)O)c1 | inactive: 0.0266% | 
61 | c1ccc(Cn2nc(-c3ccccc3)nc2-c2ccccc2)cc1 |  | inconclusive [inhibitor, partial curve]
62 | CC1Cc2cc(S(=O)(=O)N3CCC(C(=O)N4CCN(c5ccccc5F)CC4)CC3)ccc2N1C(=O)C1CC1 (stereo unspecified) |  | inconclusive [inhibitor, single point]
63 | COc1ccc(-c2ccc(CNc3ccc4[nH]c(=O)[nH]c4c3)o2)cc1Cl |  | inconclusive [inhibitor, single point]
64 | O=C(NCC(c1cccs1)N1CCOCC1)c1cc(F)cc(F)c1 (stereo unspecified) |  | active: 14.6 µM
65 | CC1CCCN(c2nc(NCc3ccco3)nc(N)c2[N+](=O)[O-])C1 (stereo unspecified) |  | inconclusive [inhibitor, single point]
66 | COc1ccc(C(=O)Nc2ccc(N3CCN(C(=O)C(C)C)CC3)cc2)cc1[N+](=O)[O-] |  | active: 11.6 µM
67 | O=C(COC(=O)C1CCN(S(=O)(=O)c2ccc3c(c2)OCCO3)CC1)NC1CCCCC1 | inactive: -6.45% | 
68 | O=C(NCCCN1CCCC1)c1cc2c(Cl)nc3ccccc3c2s1 |  | active: 11.6 µM
69 | Cc1ccc(NC(=S)N(CCCN2CCOCC2)Cc2ccco2)cc1C |  | inconclusive [inhibitor, single point]
70 | COc1ccccc1OCC(=O)Nc1sc2c(c1C(N)=O)CCC2 |  | inconclusive [inhibitor, single point]
71 | C[C@H]1CN([C@@H](C)CO)C(=O)Cc2cc(NC(=O)C3CC3)ccc2O[C@H]1CN(C)Cc1ccc(Oc2ccccc2)cc1 |  | inconclusive [inhibitor, single point]
